Assay: in vitro
Method: Ltd.) at 37 °C with 5% CO2 enrichment.
The 3-(4,5-dimethylthiazol-2-yl)-2,5-diphenyltetrazolium bromide assay (MTT assay) was used to assess the cytotoxicity of compounds against the viral host cells (MDCK, Raw 246.7, or Vero). This assay relies on the reduction of the yellow MTT compound to a dark blue formazan product by viable and metabolically active cells. Viral host cells were cultured in 96-well plates and incubated at 37 °C in a 5% CO2 atmosphere and then treated with various concentrations of the test compounds together with further incubation for 24 h. After incubation, 100 μL of a 5 mg/mL MTT solution was added to each well and incubated for 2–4 h at 37 °C. The supernatant was then discarded, and 100 μL of 100% DMSO was added to dissolve the formazan salts with vigorous agitation for 10 min at room temperature. The absorbance at 570 nm was measured along with 630 nm as a reference or background control using a spectrophotometer. Cytotoxicity was determined by comparing the absorbance values in the test and control wells expressed as a percentage. A total of 100 μL DMSO was used for the negative control, while 100 μL of culture medium represented the positive control. All experiments were repeated three times, and the mean values with standard error were reported. Non-linear regression analysis was performed using GraphPad Prism software to determine the CC50 (concentration at which 50% of cells are killed).

[1] = African green monkey, CC50 Human Adenovirus-5/Vero
[2] = mouse, CC50 Murine Norovirus-1/Raw 246.7

Compound	CC50 [1]	CC50 [2]
NCCCCC(N)C(=O)NCCNC(=O)C(Cc1c[nH]c2ccccc12)NC(=O)c1cc(Br)ccc1NC(=O)c1ccc2ccccc2c1 (centres unmarked) [NAPL]	96.1 µM	40 µM
NCCNC(=O)C(Cc1c[nH]c2ccccc12)NC(=O)c1cc(-c2ccccc2-c2ccccc2)ccc1N (centres unmarked) [Sau-22]	15.2 µM	9.3 µM
NCCNC(=O)C(Cc1c[nH]c2ccccc12)NC(=O)c1cc(-c2ccc3ccccc3c2)ccc1N (centres unmarked) [compound 610]	16.7 µM	13.9 µM
NCCNC(=Nc1ccccc1)NCCNC(=O)C(Cc1c[nH]c2ccccc12)NC(=O)c1cc(Br)ccc1NC(=O)c1ccc2ccccc2c1 (centres unmarked) [compound 758]	152 µM	16.2 µM
NCCN=C(NCCN)NCCNC(=O)C(Cc1c[nH]c2ccccc12)NC(=O)c1cc(Br)ccc1NC(=O)c1ccc2ccccc2c1 (centres unmarked) [compound 1083]	485 µM	75.5 µM
N=C(N)NCCNC(=O)C(Cc1ccccc1)NC(=O)c1cc(Br)ccc1NC(=O)c1ccc2ccccc2c1 (centres unmarked) [compound 1091]	105 µM	45.6 µM
NCCNC(=Nc1ccccc1)NCCNC(=O)C(Cc1ccccc1)NC(=O)c1cc(Br)ccc1NC(=O)c1ccc2ccccc2c1 (centres unmarked) [compound 1096]	57.3 µM	4.7 µM

From PMC11240954 (International Journal of Molecular Sciences, 2024)
